Measurements: the supplement of paper PMC3334620
In all, about 33,000 sequences were measured (“E-score (-0.5 to 0.5)”: median about -0.035, highest 2% from about 0.35 on). The list shows a part of the results.

Molecular target: T1, Pdr3 (UniProt P33200)
T1 sequence: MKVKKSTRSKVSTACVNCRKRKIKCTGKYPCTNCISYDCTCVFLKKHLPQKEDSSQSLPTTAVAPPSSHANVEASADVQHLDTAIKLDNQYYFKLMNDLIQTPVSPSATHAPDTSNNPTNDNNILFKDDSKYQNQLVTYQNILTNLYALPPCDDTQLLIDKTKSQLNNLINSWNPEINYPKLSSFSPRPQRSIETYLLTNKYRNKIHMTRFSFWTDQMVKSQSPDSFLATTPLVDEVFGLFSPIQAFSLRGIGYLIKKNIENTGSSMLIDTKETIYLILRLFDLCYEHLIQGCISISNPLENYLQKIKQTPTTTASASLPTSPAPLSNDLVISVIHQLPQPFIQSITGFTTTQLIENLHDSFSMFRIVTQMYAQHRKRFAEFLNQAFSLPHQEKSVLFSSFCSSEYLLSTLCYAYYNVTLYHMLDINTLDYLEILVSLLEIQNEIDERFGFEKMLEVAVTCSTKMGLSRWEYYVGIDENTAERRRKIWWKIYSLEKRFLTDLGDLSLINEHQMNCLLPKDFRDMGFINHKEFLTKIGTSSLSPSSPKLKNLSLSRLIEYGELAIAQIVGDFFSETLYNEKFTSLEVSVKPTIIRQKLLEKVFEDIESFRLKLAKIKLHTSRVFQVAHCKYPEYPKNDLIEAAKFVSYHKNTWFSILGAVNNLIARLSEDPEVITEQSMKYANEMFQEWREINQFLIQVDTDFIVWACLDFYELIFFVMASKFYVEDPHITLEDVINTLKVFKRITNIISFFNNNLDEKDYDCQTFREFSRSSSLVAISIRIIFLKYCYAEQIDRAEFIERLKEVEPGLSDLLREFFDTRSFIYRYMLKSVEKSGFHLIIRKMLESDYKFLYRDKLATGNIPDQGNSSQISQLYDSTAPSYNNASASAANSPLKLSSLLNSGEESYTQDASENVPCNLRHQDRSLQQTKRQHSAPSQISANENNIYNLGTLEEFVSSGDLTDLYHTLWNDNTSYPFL
Assay: PBM E-score (8-mer binding enrichment) (E-score (-0.5 to 0.5)); higher = stronger / more preferred TF binding; most listed sequences are background and not binding sites
Conditions: protein concentration: 200 nM; construct: GST-full length
Summary of the method: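 PURExpress in vitro transcription/translation supplied GST-tagged yeast transcription factors, either full-length or DNA-binding domain. Applied at about 100-200 nM to universal all-10-mer Agilent arrays double-stranded by primer extension, the bound protein was detected with fluorescent anti-GST. E-scores, modified Wilcoxon-Mann-Whitney statistics, were given by the Universal PBM Analysis Suite to ungapped eight-base words pooled with their reverse complements after masliner normalisation.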

| Sequence | PBM E-score |
| --- | --- |
| ACCTGGTG | 0.0787 |
| AAAGGAGT | -0.0436 |
| AATCGCGG | 0.233 |
| GGTCCAAC | 0.0264 |
| GACTGAAC | -0.113 |
| CGTCAGGA | -0.194 |
| GATGTACA | 0.00746 |
| TAACTCGA | -0.00617 |
| AACTTGTC | 0.0171 |
| CAGTAGCG | 0.0969 |
| CTAGGTAA | -0.143 |
| ACCGCTAG | -0.268 |
| AAACGAGG | -0.0533 |
| ACACGTGA | -0.0818 |
| TATATTAA | 0.169 |
| ACTGCGAC | -0.0554 |
| ACTGTTAA | -0.231 |
| CTCTAGAG | -0.195 |
| AACAGTAA | -0.0594 |
| AATCTGCG | 0.181 |
| ACTAGAGT | -0.252 |
| AAAAAGTA | -0.0952 |
| CCCTTTAC | -0.082 |
| ACAGCTCT | -0.212 |
| ATCGAGGC | -0.117 |

| Sequence | PBM E-score |
| --- | --- |
| ACGCCCGC | 0.162 |
| AACTTTCG | 0.032 |
| CAACGATG | -0.106 |
| GATGACAC | -0.00417 |
| AATGGATA | 0.026 |
| AGGAAAAG | 0.0387 |
| CCCTCTGA | -0.0519 |
| GTCTGTCA | -0.07 |
| CATCGTCA | -0.135 |
| GTGGGCCA | 0.0137 |
| GTTCAGCA | -0.196 |
| GTGCTGAA | -0.105 |
| GTCCCGAC | 0.255 |
| ACCGACGA | 0.0477 |
| ATATCGGC | 0.121 |
| CTATCCTC | -0.179 |
| TACCAGTA | -0.143 |
| GGAAGTAC | 0.265 |
| ACCGCGGT | 0.4 |
| CCCTTCCG | 0.392 |
| ATATATCC | 0.294 |
| AGGTAGAT | 0.0361 |
| CATTAGGA | -0.162 |
| GGGTGGAA | -0.0277 |
| GGTCGTAC | -0.0185 |

| Sequence | PBM E-score |
| --- | --- |
| GAAGACTC | -0.138 |
| TATTAAAA | 0.0638 |
| AAAAGATG | -0.15 |
| CAGAACCA | -0.211 |
| CCGAGATC | 0.286 |
| GATCGTAA | -0.187 |
| AACGCGAT | 0.118 |
| ATTAGAAT | -0.00778 |
| CGCCAGAG | -0.0366 |
| CTGCAAAA | -0.109 |
| ACGCATTG | -0.184 |
| ATTACAGC | -0.104 |
| GACGTCGC | -0.233 |
| CATGGGCC | 0.107 |
| CCCAACTC | 0.16 |
| CAAGGTTC | -0.129 |
| AAAACCTT | -0.143 |
| GACAAGAA | 0.0834 |
| ATGACGCG | 0.0815 |
| CTCACTTA | -0.0807 |
| CGCCCTAG | -0.0483 |
| AACTGTCC | 0.138 |
| CACGTGGA | -0.0333 |
| CTCGTAAA | -0.0445 |
| CATGTTTC | -0.0125 |

| Sequence | PBM E-score |
| --- | --- |
| TGATTGAA | 0.0579 |
| ATTTATCA | 0.116 |
| AGGCCCGA | -0.0363 |
| ACGAAAGA | -0.0345 |
| CCCGGCAG | 0.303 |
| CAAGGATC | -0.0745 |
| ACTAGATC | -0.2 |
| ATGCGTGG | -0.313 |
| ACCTAACG | -0.168 |
| ATCCGTGA | 0.306 |
| ATCTAAGG | -0.149 |
| GACCTCGA | 0.113 |
| TTGAACAA | -0.176 |
| AAAGTGTA | -0.224 |
| TCGCTTAA | 0.0103 |
| AGACCGTA | -0.13 |
| CCCGCGAC | 0.175 |
| AGTTAGCG | 0.0161 |
| CAAGCCCC | -0.0333 |
| GAGCGGCA | 0.206 |
| CAGTGACA | -0.196 |
| ATATAAAT | 0.133 |
| AACCCAAA | 0.103 |
| ACTAGCTG | -0.167 |
| GGACTCAA | -0.0971 |

| Sequence | PBM E-score |
| --- | --- |
| ATAACGAG | -0.138 |
| GGAACGCA | 0.275 |
| CACTTAGA | -0.119 |
| GTAACAGA | 0.129 |
| CGTTACAA | -0.136 |
| CGTTATTC | -0.0231 |
| AGCATGTA | -0.24 |
| GCTGAGAA | -0.139 |
| CTTATGAC | 0.0626 |
| GAATTCGA | 0.032 |
| ATAGAGAG | -0.267 |
| TGTTGCAA | 0.0777 |
| TATGAGCA | -0.202 |
| GGTATACC | 0.123 |
| CACCGAGC | 0.169 |
| GGGGACCA | -0.0462 |
| AGTGTTCC | 0.301 |
| CCATGCAC | -0.0706 |
| ACTTTTCC | 0.269 |
| AAAGCGGC | 0.14 |
| CTCTCTTA | -0.155 |
| CGAAGTTA | -0.0595 |
| ACTTTAAA | 0.113 |
| AGACGTGG | -0.0706 |
| AGTGCTCA | -0.244 |

| Sequence | PBM E-score |
| --- | --- |
| ACCGAGGT | 0.169 |
| CGAATAAC | 0.0754 |
| GTGTTCAA | -0.0336 |
| GAGCCAGC | -0.0887 |
| CCTCACCG | -0.0232 |
| CCCCCGAC | 0.0417 |
| AATCCTGT | 0.00889 |
| CAAGCTCA | -0.0814 |
| AGCGGTGG | 0.0232 |
| CGATTATA | 0.0681 |
| AAGTCCTC | -0.0742 |
| ACGTCGAT | -0.0231 |
| ACTAACTC | -0.138 |
| ACTTGTCT | -0.164 |
| AGACGGGA | 0.187 |
| ATTCTCCA | -0.113 |
| CCCCCACA | -0.401 |
| CCACGCCC | -0.00205 |
| ACCAATCA | 0.0165 |
| GTCTTTCA | -0.193 |
| ACGTTTGC | -0.0449 |
| ACAGACAT | 0.042 |
| TACCATGA | -0.289 |
| AGGGCCCG | 0.182 |
| CTGATAAG | -0.0916 |

| Sequence | PBM E-score |
| --- | --- |
| CAATTAGC | -0.0494 |
| CCGTCATA | 0.251 |
| ACACTTTA | 0.00159 |
| ATCTTTCG | -0.00446 |
| AACAGTGG | -0.0238 |
| CCTACCCC | 0.0218 |
| GATAGTAC | 0.0506 |
| CTGCCGAC | 0.152 |
| ACATAAAA | -0.206 |
| AAATCAGA | -0.0593 |
| CAACCTGG | 0.0391 |
| CCCCGGAA | 0.421 |
| GCGAAGTA | 0.09 |
| ACCGGGGC | 0.224 |
| CACGGTGG | 0.116 |
| ATCGACAC | -0.0916 |
| ACGGTGAC | -0.101 |
| CTTCACAA | -0.214 |
| ACAATGAG | -0.132 |
| CCACGCTC | -0.141 |
| AAGCGGAC | 0.171 |
| ATTCGCTG | -0.0287 |
